Experimental data taken from PubChem BioAssay AID504832 (National Center for Advancing Translational Sciences (NCATS), 2011).
Screen size: about 310,000 compounds; about 18,000 (5.8%) were called active. This list was built around the results that the source calls inconclusive (neither active nor inactive); the mix of calls is not that of the screen. The call rests on the fitted dose curve; in most records, active means well fitted inhibition curve with a large enough effect; inconclusive means small, poorly fitted or top-dose-only effect, or another doubt; inactive means no such curve, though single readings can be large or run the other way. No potency is given beside an inconclusive call; the fits are too rough.

Experiment: Primary qHTS for delayed death inhibitors of the malarial parasite plastid, 48 hour incubation
Details: P. falciparum luciferase growth in erythrocytes; series mostly up to 28.7 µM
Procedure, shortened: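 Here the parasites carry a stable luciferase gene and grow inside erythrocytes in Albumax-based RPMI medium with compound for one erythrocytic cycle. Activity is scored as loss of luminescent signal.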
Potency means the concentration at half of the fitted maximal effect; tags describe the fitted curve by direction and shape.

Row | Structure (SMILES) | Potency
1 | COc1ccc(NC(=O)CSc2nc3[nH]ncc3c(=O)n2-c2ccccc2OC)cc1OC | inconclusive [inhibitor, single point]
2 | O=C(CCc1ccccc1)Nc1ncn[nH]1 | inactive
3 | Cc1nnc(C)c2c(C)n(-c3ccccc3)c(C)c12 | inconclusive [inhibitor, partial curve]
4 | CCN(CC)C(=O)CSc1nc(Cc2ccccc2)nc2ccccc12 | inactive
5 | CC(C)c1cc(N=NC(N)=O)cc(C(C)C)c1O | inactive
6 | COc1ccccc1NC(=O)c1ccc(C(=O)c2ccccc2)o1 | inconclusive [inhibitor, partial curve, poor fit]
7 | CCCCNC(=O)COC(=O)c1ccccc1F | inactive
8 | CCCCc1ccc(C2C(C#N)=C(N)SC(N)=C2C#N)s1 | inconclusive [inhibitor, partial curve, poor fit]
9 | CC(C)(C)c1cnnn1-c1ccc(NC(=O)c2ccc3c(c2)OCO3)cc1 | inconclusive [inhibitor, single point]
10 | CCCOC(=O)C1=C(C)NC2=C(C(=O)CCC2)C1c1ccc(N(C)C)cc1 (stereo not given) | inconclusive [inhibitor, partial curve]
11 | COc1ccc(-c2nn(-c3ccccc3)cc2/C=N/NC(=O)c2ccc3c(c2)OCO3)cc1 | inconclusive [inhibitor, single point]
12 | Cc1ccc(C(=O)O/N=C(\N)Cc2ccc([N+](=O)[O-])cc2)c(Cl)c1 | inconclusive [inhibitor, single point]
13 | CCOc1ccc(S(=O)(=O)Nc2ccc3c(c2)OCO3)c2cccnc12 | inconclusive [inhibitor, partial curve, poor fit]
14 | CCN(CC)CC(=O)Nc1sc(C)c(C)c1C(=O)c1ccc(C)cc1 | inconclusive [inhibitor, single point]
15 | CC1CCN(C(=O)c2ccccc2NC(=O)Nc2ccccc2)CC1 | inactive
16 | CC(C)(C)C(=O)N1CCN(c2ccc([N+](=O)[O-])c(NCc3cccnc3)c2)CC1 | inconclusive [inhibitor, partial curve]
17 | COC(=O)c1ccc(N=NNc2ccc(C(=O)OC)cc2)cc1 | inactive
18 | COc1ccc(CCNC(=S)NC(=O)c2cc(OC)c(OC)c(OC)c2)cc1OC | inconclusive [inhibitor, full curve]
19 | Cc1ccc(S(=O)(=O)N2CCC(C(=O)Nc3ccc(S(=O)(=O)N4CCCC4)cc3)CC2)cc1C | active: 11.7 µM
20 | CCCCc1cc(=O)oc2c(C)c(OCC(=O)NCC3CCC(C(=O)O)CC3)ccc12 (stereo not given) | inactive
21 | c1ccc(CCNc2nc(-c3ccccn3)cs2)cc1 | inconclusive [inhibitor, full curve]
22 | CCCCOC(=O)Nc1ccc(C(=O)OCCC)cc1 | inactive
23 | CC1CCCCN1CCNC(=O)C1CCN(S(=O)(=O)c2cccc3cccnc23)CC1 (stereo not given) | inconclusive [inhibitor, single point]
24 | Cc1nc2ccccc2c(=O)n1CCCN1CCOCC1 | inconclusive [inhibitor, single point]

Row | Structure (SMILES) | Potency
25 | COc1ccc(C2/C=C\CN(C(=O)CC(C)(C)C)CC(=O)N2Cc2ccc(F)cc2)cc1 (stereo not given) | inconclusive [inhibitor, partial curve, poor fit]
26 | O=C(NCCN1CCOCC1)c1ccc(Cl)c(S(=O)(=O)N2CCCCCC2)c1 | inconclusive [inhibitor, partial curve]
27 | COc1cccc(CNC(=O)CSc2nc(=O)n(Cc3ccncc3)c3c2CCC3)c1 | active: 10.4 µM
28 | C=CCc1ccccc1OCC(=O)N/N=C/c1ccc(OC(C)=O)cc1OC(C)=O | inconclusive [inhibitor, single point]
29 | CCN(CC)CCCn1c2c(c(SCC(=O)N3CCc4ccccc43)nc1=O)CCC2 | inconclusive [inhibitor, single point]
30 | CS(=O)(=O)N1CCCC(C(=O)Nc2ccc(F)cc2)C1 (stereo not given) | inconclusive [inhibitor, full curve, poor fit]
31 | C=CCNC(=O)c1ccccc1NC(=O)C1CC(=O)N(C(C)C)C1 (stereo not given) | inactive
32 | CCS(=O)(=O)N1Cc2ccccc2CC1C(=O)NCCc1c[nH]c2ccccc12 (stereo not given) | inconclusive [inhibitor, single point]
33 | O=C(CN1C(=O)NC2(CCCC2)C1=O)N1CCN(Cc2ccccc2)CC1 | inconclusive [inhibitor, partial curve, poor fit]
34 | CCN(CC)S(=O)(=O)c1cccc(-c2nnc(SCc3nnc(-c4cccs4)o3)n2N)c1 | inconclusive [inhibitor, single point]
35 | COC(=O)c1c(NC(=O)CSc2nnnn2-c2ccccc2)sc2c1CCC(C(C)(C)C)C2 (stereo not given) | inconclusive [inhibitor, single point]
36 | COc1cccc(Nc2c(Nc3cccc(OC)c3)c(=O)c2=O)c1 | inconclusive [inhibitor, partial curve, poor fit]
37 | Cc1ccccc1/C=C/C1=NCCN1 | inconclusive [inhibitor, single point]
38 | COC(=O)c1ccc(COC(=O)CNC(=O)c2cccs2)cc1 | inactive
39 | CCn1c(NCc2cc(Br)ccc2NS(=O)(=O)c2ccc(C)cc2)nc2ccccc21 | inconclusive [inhibitor, partial curve, poor fit]
40 | COc1c(O[C@@H]2O[C@H](CO)[C@@H](O)[C@H](O)[C@H]2O)cc2c(c1OC)-c1ccc(SC)c(=O)cc1C(NC(C)=O)CC2 (stereo not given in full) | inconclusive [inhibitor, partial curve, poor fit]
41 | Cc1nn(C(C)C(=O)N/N=C/c2ccc(N(C)C)cc2)c(C)c1[N+](=O)[O-] (stereo not given) | inactive
42 | O=C(Nc1ccc2ccccc2c1)c1cccc(F)c1 | inactive
43 | Cc1nc(-c2cccc(NC(=O)c3cc4cc(Br)ccc4oc3=O)c2)cs1 | inconclusive [inhibitor, partial curve, poor fit]
44 | CC1(C)C(=O)N(c2ccccc2)C1c1ccccc1O (stereo not given) | inconclusive [inhibitor, partial curve]
45 | CCN(CC)S(=O)(=O)c1ccc(N2CCOCC2)c(NC(=O)C2=COCCO2)c1 | active: 3.29 µM
46 | CCC(c1nnnn1C1CCCC1)N(Cc1cccs1)Cc1cc2cc(C)ccc2[nH]c1=O (stereo not given) | inconclusive [inhibitor, partial curve]
47 | Cc1cc2nc(CCN(Cc3cccnc3)C(=S)Nc3ccccc3)[nH]c2cc1C | active: 11.7 µM
48 | O=C(NC(=S)NCCc1ccccn1)c1ccccc1 | inactive

Row | Structure (SMILES) | Potency
49 | COc1ccccc1N1CCN(C(=O)c2ccc3c(=O)n(Cc4ccco4)c(=S)[nH]c3c2)CC1 | inconclusive [inhibitor, partial curve]
50 | CSc1nc(=S)n(-c2cc(C)ccc2C)c(C)c1C(C)=O | inactive
51 | CCN1C(=S)N[C@@H](c2ccccc2)C(C(=O)OC)=C1C | inconclusive [inhibitor, single point]
52 | CN(C)S(=O)(=O)c1cc(C(=O)OCCn2cnc3c2c(=O)n(C)c(=O)n3C)ccc1Cl | inconclusive [inhibitor, partial curve, poor fit]
53 | CCOC(=O)C(=CNc1cccc(C)c1C)C(=O)OCC | inactive
54 | C/C(=N\NC(=O)COc1ccc(C(C)(C)C)cc1)c1ccc2c(c1)OCCO2 | inactive
55 | CCN(CC)CCOC(=O)c1ccc(N/C=C(/C#N)c2nc(-c3cccc(OC)c3)cs2)cc1 | inconclusive [inhibitor, partial curve, poor fit]
56 | COC(=O)c1sc2nc(N)c(C#N)cc2c1N | inactive
57 | Cc1ncc([N+](=O)[O-])n1CCOC(=O)NC(NCc1ccccc1Cl)C(Cl)(Cl)Cl (stereo not given) | inconclusive [inhibitor, single point]
58 | COC(=O)C1C(=O)C2=C(CC1C)NC(C)=C(C(=O)OC1CCCCC1)C2c1ccc(N(C)C)cc1 (stereo not given) | active: 5.86 µM
59 | O=C(CSc1ccc(-c2cccnc2)nn1)Nc1ccccc1F | inactive
60 | O=S(=O)(c1ccc(F)cc1)N1CCN(CC(O)COc2ccccc2F)CC1 (stereo not given) | inactive
61 | CC(C)(C)n1nnnc1C(c1cccnc1)N(Cc1ccccc1)Cc1cccs1 (stereo not given) | active: 0.828 µM
62 | O=C(Nc1ccc(O)c2c(=O)cc(-c3cccc(Cl)c3)oc12)c1ccccc1Cl | inactive
63 | CCn1c(CNC(=O)c2ccccc2F)cc2ccccc21 | inconclusive [inhibitor, partial curve, poor fit]
64 | N#Cc1ccccc1OCC(=O)Nc1cccc(S(=O)(=O)N2CCCCCC2)c1 | active: 13.1 µM
65 | CC(C)CN(Cc1c(O)ccc2c(=O)c(-c3ccccc3)coc12)CC(C)C | inconclusive [inhibitor, full curve]
66 | CCN(CC)C(=O)CSc1nnc(-c2ccco2)n1N | inactive
67 | CCc1ccc(N2CC(C(=O)Nc3ccc(S(=O)(=O)N4CCOCC4)cc3)CC2=O)cc1 (stereo not given) | inconclusive [inhibitor, single point]
68 | CS(=O)(=O)Oc1ccc2c(c1)O/C(=C\C=C\c1ccccc1)C2=O | inconclusive [inhibitor, single point]
69 | COc1ccc(N)cc1-n1c(C)ccc1C | inconclusive [inhibitor, partial curve, poor fit]
70 | OC(CCN1CCOCC1)(c1ccc(Cl)cc1)C1CCCCC1 (stereo not given) | inconclusive [inhibitor, partial curve, poor fit]
